Some of the results follow.

The assay has as its system T1, Caupolican (Caup) homeodomain DNA-binding domain.
T1 sequence: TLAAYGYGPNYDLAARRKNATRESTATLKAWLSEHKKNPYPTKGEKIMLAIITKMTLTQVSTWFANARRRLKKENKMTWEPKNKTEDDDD
Put plainly: PBM E-score (8-mer, recovered from the published 9-mer minima) (E-score (dimensionless, -0.5 to 0.5)); Drosophila protein; higher = stronger relative binding preference, active = 0.31 or more. The gist of the method:
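An enrichment score, with higher meaning stronger, expresses relative binding preference for each short DNA word. The protein used was Caup's homeodomain DNA-binding domain (residues 214-303), produced by in vitro transcription and translation and tested at 100 nM on custom-designed protein binding microarrays. The 8-mer values were recovered from published 9-mer scores, each equal to the lower of its two constituent 8-mer scores.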
Turning to GATGAGAC, the “PBM E-score” value is inactive: -0.0355. With CGGGTCAG the figure was inactive: -0.135; with CGCGAAAG, inactive: -0.127. As for AGTCATCG, the “PBM E-score” value is inactive: -0.0399. The figure for TCGTGTAA is active: 0.363. ACTAACCC: the “PBM E-score” value was inactive: 0.0323. With GACGGAGA the figure was inactive: -0.0597; with ATTGCCCA, inactive: -0.0369; with CTGAGAAG, inactive: -0.128. With CCTACACC the figure was inactive: 0.0683; with GCCTTAGA, inactive: -0.125.

Turning to CATATGGA, the “PBM E-score” value was inactive: 0.0301. The figure for CGCCTATA is inactive: -0.118.

For the sequence GAGCCGAC, the “PBM E-score” value is inactive: -0.2. With TGACGCCA the figure was inactive: -0.11. On to AAATTAAT, for which the “PBM E-score” value is inactive: 0.145.

As to AGAGTTAG, the “PBM E-score” value was inactive: -0.0678. With CTGTATAA the figure was inactive: 0.186.

Regarding AGCTTGCG, the “PBM E-score” value was inactive: -0.158. With AATGTAGA the figure was inactive: 0.139. With AGCTCTGC the figure was inactive: -0.216; with TGTACAAA, active: 0.384.

As for CAATTGGC, the “PBM E-score” value is inactive: -0.0129.

For ACCGAACA, the “PBM E-score” value was ≥ 0.244. In the case of CCGGAGCA, the “PBM E-score” value is inactive: -0.122.

GCTTGTAC: the “PBM E-score” value was active: 0.38.

For the sequence ATTCATAG, the “PBM E-score” value is inactive: 0.163. With GTATCCAC the figure was inactive: -0.0186; with TTAGCAAA, inactive: 0.0812. With AAAGTGCG the figure was inactive: -0.13; with TCCATTAA, inactive: 0.0869.

As to GCGCCAGA, the “PBM E-score” value was inactive: -0.223.

With TACCGCCA, the “PBM E-score” value is ≥ -0.0192. With CTCAAAAG the figure was inactive: 0.0163; with CGTATGCC, inactive: -0.0747. Turning to GACATAGA, the “PBM E-score” value was inactive: 0.187. With AATATGAA the figure was inactive: 0.159; with CTGCCTGA, inactive: -0.0293; with ACTACCGA, inactive: -0.0388. The figure for ATTCCGCG is inactive: -0.115; for AACCTAAT it is inactive: -0.0419. In the case of AAGCCAGA, the “PBM E-score” value is inactive: -0.0853.

For GTATCGGA, the “PBM E-score” value was inactive: 0.0601. With ACACGAAT the figure was inactive: 0.288; with CAGCTCGG, inactive: -0.182. The figure for CTAGCAAC is inactive: 0.101; for ACGTGACG it is inactive: 0.0293; for TCCACGCA it is inactive: -0.0934. The figure for GTAGAATA is inactive: 0.232; for GGACGCAC it is inactive: -0.0705; for TAGATGGA it is inactive: 0.0256.

In the case of GAGTCCGC, the “PBM E-score” value is inactive: -0.197. With ATCACAAT the figure was inactive: 0.174; with CACGGAAA, inactive: 0.119; with CCCACTGA, inactive: -0.0823.

For CCCAGTCC, the “PBM E-score” value is inactive: -0.0854. CCACAGCC: the “PBM E-score” value was inactive: -0.141.

Regarding ACGGACAT, the “PBM E-score” value was inactive: 0.265. As to AGCAGACA, the “PBM E-score” value was inactive: 0.0631.

In the case of CACAAAGG, the “PBM E-score” value was inactive: -0.0704. With ATAGTCAA the figure was inactive: 0.0921; with AGGGTGCC, inactive: -0.169. The figure for GGTCGCGA is inactive: -0.0519; for GGGTGTAA it is inactive: 0.146; for ACCAAGGG it is inactive: -0.03. The figure for AATTCAAA is inactive: 0.141; for AGGACTGG it is inactive: -0.0346. On to CCTCCTAG, for which the “PBM E-score” value was inactive: -0.0581. With CTCCAGAG the figure was inactive: -0.179; with GTGACATA, active: 0.312; with ACCTAATA, inactive: 0.117. The figure for GCAAGTCA is inactive: 0.0708.

The record behind these values is the supplement of paper PMC3724861.
